Several values for one entry are separate records, joined by “and”; a condition that tells them apart may be missing. Equal entries are not always repeated. The whole screen tested about 48,000 compounds, of which about 1,200 (2.5%) were called active. About 2% were inconclusive and are not listed.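 Rule for the calls: active = activation of at least 60% and not above a set upper limit (about 1 call in 100 departs from these limits); inconclusive = activation of 40% to 60%, or above that upper limit; inactive = activation under 40%.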 Some of the results follow.
Biological target: Probable G-protein coupled receptor 32 (Homo sapiens) (UniProt O75388)
Sequence of UniProt O75388 (O75388 whole entry, looked up): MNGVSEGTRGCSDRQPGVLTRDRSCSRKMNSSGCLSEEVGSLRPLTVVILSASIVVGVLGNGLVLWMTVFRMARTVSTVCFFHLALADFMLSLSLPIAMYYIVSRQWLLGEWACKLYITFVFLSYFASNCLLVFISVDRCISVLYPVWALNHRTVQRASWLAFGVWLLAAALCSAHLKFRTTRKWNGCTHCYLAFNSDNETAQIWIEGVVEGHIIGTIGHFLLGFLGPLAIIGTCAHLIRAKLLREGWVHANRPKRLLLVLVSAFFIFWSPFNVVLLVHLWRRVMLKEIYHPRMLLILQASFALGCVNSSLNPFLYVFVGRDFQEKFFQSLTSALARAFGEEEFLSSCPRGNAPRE
Assay: qHTS for Agonists of Human Resolvin D1 Receptor DRV1; note: 0% is about no effect
Conditions: CHO-K1 GPR32 beta-arrestin PathHunter luminescence, 90 min; at 76.9 µM; hits give high values; zero percent set by DMSO-only wells
Outline: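 PathHunter enzyme-fragment complementation, CHO-K1 GPR32 stable line; 2,500 cells/well, overnight attach; cpd 90 min 37 °C 5% CO2; detection reagent 1 h RT; chemiluminescence. DMSO = EC0.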

Row | Structure (SMILES) | activation
1 | CCOc1ccc(-n2cc(-c3ccccc3)c3c(Nc4cccc(F)c4)ncnc32)cc1 | inactive: -6.12%
2 | CCN(Cc1ccccc1)S(=O)(=O)c1cc(Br)cc2c1N(C(=O)C1CC1)CC2 | inactive: -0.57%
3 | CCOc1ccc(C(=O)Nc2nnc(SCc3cc(=O)n4ccccc4n3)s2)cc1 | inactive: -4.02%
4 | COc1cccc(C(=O)Nc2c(C(=O)Nc3ccc(F)cc3)oc3ccccc23)c1OC | inactive: 1.51%
5 | CCOc1ccc(-c2nnc(SCC(=O)Nc3cccc(C#N)c3)o2)cc1 | inactive: 7.3%
6 | CCCCOC(=O)c1c(C)oc2c1cc(NS(=O)(=O)c1cc(OC)ccc1OC)c1ccccc12 | inactive: 0.0799%
7 | CC1CCN(C(=O)Cn2c(-c3cccs3)cc3cc(Cl)ccc32)CC1 | inactive: -13.1%
8 | COc1cccc(NC(=O)Nc2ccc3c(c2)N(C)C(=O)c2ccccc2S3)c1 | inactive: 4.16%
9 | COc1ccc(-c2c(C)c3ccc(O)c(CN4CCOCC4)c3oc2=O)cc1OC | inactive: 11%
10 | Cc1ccc(C)c(NC(=O)C(CC(C)C)N2Cc3ccccc3C2=O)c1 (centres undefined) | inactive: -18.3%
11 | Cc1cc(C)c2c(c1)c(C)cc1nnc(SCC(=O)c3ccccc3)n12 | inactive: -14%
12 | O=C(CSc1nccn1Cc1ccc(F)cc1)NCc1ccco1 | inactive: -10.7%
13 | CCCN1Cc2cccc(C(=O)Nc3cc(Cl)ccc3C)c2C1=O | inactive: -5.35%
14 | Cc1cccc(NC(=O)c2sc3ncnc(N(C)C4CCCCC4)c3c2C)c1C | inactive: 0.84%
15 | CC(C)(C)c1ccc(C(=O)Nc2ccc(-c3nc4ccccc4o3)c(O)c2)cc1 | inactive: -2.24%
16 | O=C(CN1C(=O)c2ccccc2Sc2ccc(C(=O)N3CCOCC3)cc21)Nc1ccc(Cl)cc1F | inactive: -8.73%
17 | CCN1CCN(Cc2c(O)ccc3oc(C)c(C(=O)Nc4cccc(C(F)(F)F)c4)c23)CC1 | inactive: -4.4%
18 | COc1cccc(NC(=O)c2c(C)oc3nc(C)nc(N4CCCC4)c23)c1 | inactive: -10.6%
19 | CCN(CC)c1ccc2cc(-c3nc4sc5c(c4c(=O)[nH]3)CCC(C(C)(C)C)C5)c(=O)oc2c1 (centres undefined) | inactive: -4.03%
20 | Cc1cccc(C)c1NC(=O)c1cc(S(=O)(=O)N2CCc3ccccc3C2)ccc1F | inactive: -2.44%
21 | CCC(=O)N1CCc2cc(S(=O)(=O)CCC(=O)N3CCN(c4cccc(C)c4C)CC3)ccc21 | inactive: -16%

Row | Structure (SMILES) | activation
22 | COc1ccc(CC(=O)Nc2nc3c(s2)CCCC3)cc1 | inactive: -9.33%
23 | Cc1ccc2c(c1)N(C(=O)CCC(=O)NCc1cccc(F)c1)CC(C)O2 (centres undefined) | inactive: -14.6%
24 | COc1cccc2cc(-c3nc(-c4ccc(Cl)cc4)cs3)c(=O)oc12 | inactive: 16.7%
25 | CCOC(=O)c1cccc(NC(=O)CCS(=O)(=O)c2ccc3c(c2)CCN3C(=O)CC)c1 | inactive: -15.2%
26 | O=C(c1ccc(Cl)cc1)n1nc(-c2cccnc2)nc1NCc1ccc(F)cc1 | inactive: -11.3%
27 | CCOc1ccc(-c2cc3c(=O)n(CC(=O)NCc4ccc(F)cc4)ccn3n2)cc1 | inactive: 6.45%
28 | CCCCOc1ccc(C(=O)N(Cc2ccccc2)C2CCS(=O)(=O)C2)cc1 (centres undefined) | inactive: -10.4%
29 | CCn1c(=O)c2sccc2n2c(CCCC(=O)N3CCN(c4ccc(F)cc4)CC3)nnc12 | inactive: -7.28%
30 | CC(=O)c1cccc(NC(=O)c2ccc3nc(Cc4ccccc4)oc3c2)c1 | inactive: 3.31%
31 | COC(=O)Cc1c(C)c2ccc3c(c2oc1=O)CN(Cc1ccccc1Cl)CO3 | inactive: -9.89%
32 | NC1CONC1=O (centres undefined) | inactive: 2.28%
33 | CCOc1ccc(-c2c(C)nn3c(C)c(C(=O)NCCc4ccc(C)cc4)cnc23)cc1OCC | inactive: 1.4%
34 | CCc1c(C)sc2c1CCN(Cc1ccccc1F)C2c1ccccc1 (centres undefined) | inactive: 32.6%
35 | Cc1nc2cccnc2n1C1CCN(C(=O)Nc2ccc(Cl)cc2)CC1 | active: 87.7%
36 | O=C(NCCSc1c[nH]c2ccccc12)c1ccccc1Cl | inactive: -56.9%
37 | COc1ccc(NC(=O)C2CCN(S(=O)(=O)c3c(C)noc3/C=C/c3cccs3)CC2)cc1Cl | inactive: -12.2%
38 | COCCNC(=O)c1ccccc1NC(=O)c1nsc2ccccc12 | inactive: -11.4%
39 | CNC(=O)CN1C(=O)COc2ccc(S(=O)(=O)N3CCC(C)CC3)cc21 | inactive: -2.81%
40 | CCCCCCCCOc1ccc(C(=O)c2ccccc2)c(O)c1 | inactive: 1.5%
41 | COC(=O)Cn1c(SCCOc2ccccc2OC)nc2ccccc21 | inactive: -1.13%
42 | CCc1cc2c(cc3c(=O)n(CC(=O)NCCc4ccc(OC)cc4OC)nc(CC)n32)s1 | inactive: 6.62%

Row | Structure (SMILES) | activation
43 | COc1ccc2[nH]cc(CCN=C(NC(=O)c3ccccc3OC)Nc3nc(C)cc(C)n3)c2c1 | inactive: 42.6%
44 | Cc1ccc(-n2cnnn2)cc1S(N)(=O)=O | inactive: 6.33%
45 | COc1cccc(Cn2cc(C(=O)c3ccc(Cl)cc3)c(=O)c3ccccc32)c1 | inactive: 6.29%
46 | Cc1ccc(NC(=O)c2ccc(NC(=O)CCS(=O)(=O)c3cccs3)cc2)cc1F | inactive: -8.13%
47 | CCSc1ncc(Cl)c(C(=O)Nc2cccc(Cl)c2)n1 | inactive: 16.7%
48 | Cc1ccccc1Nc1c(-c2ccc(N3CCOCC3)cc2)nc2ccc(Br)cn12 | inactive: -29.3%
49 | COc1cccc(NC(=O)CN2C(=O)c3ccccc3Sc3ncccc32)c1 | inactive: 11.5%
50 | COc1ccc(NC2=C(c3ccc(C(F)(F)F)cc3)C(=O)c3ccccc32)cc1 | inactive: -18.9%
51 | COc1ccccc1C(=O)Nc1c(C(=O)NC(C)(C)C)oc2ccccc12 | inactive: -32.1%
52 | Cc1ccc(-n2nc(C)c3c(C(F)(F)F)cc(-c4cccnc4)nc32)cc1Cl | inactive: 6.28%
53 | COc1cc(OC)c(N(C)C(=O)Nc2cn(CC(C)C)c(=O)c3ccccc23)cc1Cl | inactive: -5.36%
54 | CCCc1nn2c(=O)cc(COC(=O)CNC(=O)COc3ccc(C)cc3)nc2s1 | inactive: -7.47%
55 | COc1ccc(S(=O)(=O)N2CCN(c3ccccc3OC)CC2)cc1 | inactive: -8.88%
56 | CCOC(=O)c1ccc(NC(=O)c2cn3c4c(ccc(Cl)c4c2=O)OC(C)C3)cc1 (centres undefined) | inactive: 13.2%
57 | Cc1ccc(-c2nc(C)c(CCNC(=O)c3ccccc3Br)s2)cc1 | inactive: 13%
58 | CC1CCN(c2ccc(-c3cccc(NS(=O)(=O)c4ccc(F)cc4F)c3)nn2)CC1 | inactive: -0.288%
59 | CC1CCN(C(=O)CSc2nc(-c3ccc(F)cc3)cc(C(F)(F)F)n2)CC1 | inactive: -4.23%
60 | CCOC(=O)c1sc(NC(=O)c2c(-c3ccccc3)c(-c3ccccc3)nn(C)c2=O)nc1C | inactive: -14%
61 | CCc1ccc(Nc2nc3ccccc3nc2NS(=O)(=O)c2ccccc2)cc1 | inactive: 33.1%
62 | Cc1cccc(-n2c(=O)c3ccccc3n(Cc3ccc(F)cc3)c2=O)c1 | inactive: -12.8%
63 | Cc1[nH]c(=O)c(C#N)cc1-c1ccc2nccn2c1 | inactive: -2.48% and inactive: -3.39%

Row | Structure (SMILES) | activation
64 | COc1ccc(N(C)C(=O)Cn2cc(S(=O)(=O)N3CCN(c4ccccc4F)CC3)c3ccccc3c2=O)c(OC)c1 | inactive: -17.7%
65 | COc1ccc(NC(=O)C2=C(C)Nc3nc(SCc4ccc(Cl)cc4)nn3C2c2cccc(OC)c2OC)cc1 (centres undefined) | inactive: 8.48%
66 | CCCCOC(=O)c1ccc(NC(=O)c2sc3nc(C)cc(C)c3c2N)cc1 | inactive: -5.69%
67 | O=C(Cn1c(=O)nc(-c2ccccc2)c2ccccc21)Nc1ccc(Cl)cc1F | inactive: -8.54%
68 | Cc1cc2c(cc1S(=O)(=O)Nc1cc(C(F)(F)F)cc(C(F)(F)F)c1)OCC(=O)N2 | inactive: 45.9%
69 | CCCCCCOc1ccc(C2C(=O)N(C3CCCCC3)CC(=O)N2C2CCCCC2)cc1 (centres undefined) | inactive: -1.53%
70 | CCN(CC)S(=O)(=O)c1ccc(C(=O)NCCSc2c(-c3ccccc3)[nH]c3ccccc23)cc1 | inactive: -17.2%
71 | CCC(=O)N1CCc2cc(S(=O)(=O)NCCC(=O)Nc3ccc(N(CC)CC)cc3C)ccc21 | inactive: 19.2%
72 | Cc1ccc(-c2nn3c(C)nnc3c3ccccc23)cc1S(=O)(=O)NCC(C)O (centres undefined) | inactive: -12%
73 | O=C(c1ccc2c(c1)N(Cc1ccc(F)cc1)C(=O)c1ccccc1S2(=O)=O)N1CCCCC1 | inactive: -11.4%
74 | COc1cc(NC(=O)CSc2c3c(nc4ccccc24)CCC3)cc(OC)c1OC | inactive: -3.58%
75 | NC(=O)c1cc(S(=O)(=O)N2CCN(c3cccc(C(F)(F)F)c3)CC2)cs1 | inactive: -5.35%
76 | O=C(CSc1nc2ccccc2nc1Cc1ccc(Cl)cc1)N1CCN(c2ccccc2)CC1 | inactive: -6.06%
77 | O=C(CSc1nc(-c2cccc(F)c2)[nH]c1-c1ccccc1)Nc1ccc2c(c1)OCO2 | inactive: 11.6%
78 | COc1cc(NC(=O)c2cc3cc4ccc(C)cc4nc3o2)cc(OC)c1OC | inactive: 12.1%
79 | CCc1ccccc1N(C)C(=O)C1CCCN(c2ncnc3c2nc2n3CCCCC2)C1 (centres undefined) | inactive: -5.63%
80 | Cc1ccc(-n2ncc(C(=O)NCc3ccco3)c2C2CCN(C(=O)OC(C)(C)C)CC2)cc1C | inactive: -27.5%
81 | Cc1c(C(=O)Nc2cc(F)ccc2F)sc2nc(-c3ccc(F)cc3)cn12 | inactive: -11.8%
82 | CCc1c(C)c2cc3c(c(C)c2oc1=O)OCN(CCc1ccccc1F)C3 | inactive: 36.9%
83 | Cc1ccc2c(=O)cc(C(=O)Nc3c(C)n(C)n(-c4ccccc4)c3=O)oc2c1 | inactive: 4.42%
84 | CCOC(=O)C1(C)C=C(Nc2cccc(C(=O)O)c2)C(=O)N1c1ccccc1 (centres undefined) | inactive: -14.9%
